# Measurements: a collection of fitness landscapes (doi:10.1126/science.1257360)
# The list shows a part of the results.
# B1: PhoQ; a variant is named by its letters at X, in order, P23837 (parent)
# chain: MKKLLRLFFPLSLRVRFLLATAAVVLVLSLAYGMVALIGYSVSFDKTTFRLLRGESNLFYTLAKWENNKLHVELPENIDKQSPTMTLIYDENGQLLWAQRDVPWLMKMIQPDWLKSNGFHEIEADVNDTSLLLSGDHSIQQQLQEVREDDDDAEMTHSVAVNVYPATSRMPKLTIVVVDTIPVELKSSYMVWSWFIYVLSANLLLVIPLLWVAAWWSLRPIEALAKEVRELEEHNRELLNPATTRELTSLVRNLNRLLKSERERYDKYRTTLTDLTHSLKTPLXXLQXXLRSLRSEKMSVSDAEPVMLEQISRISQQIGYYLHRASMRGGTLLSRELHPVAPLLDNLTSALNKVYQRKGVNISLDISPEISFVGEQNDFVEVMGNVLDNACKYCLEFVEISARQTDEHLYIVVEDDGPGIPLSKREVIFDRGQRVDTLRPGQGVGLAVAREITEQYEGKIVAGESMLGGARMEVIFGRQHSAPKDE
# Variants of: B1
# Test: enrichment ratio after two sorts for PhoP signalling (ratio (wild type AVST 3.29)); higher = more functional
# Details: with PhoP (E. coli)
row,Variant,enrichment ratio
1,KQAI,≤ 0.25
2,DYYA,≤ 0.25
3,HISV,≤ 0.25
4,TDNT,9.22
5,EIIT,≤ 0.25
6,FSET,≤ 0.25
7,WHST,≤ 0.25
8,YIFE,≤ 0.25
9,ATFY,≤ 0.25
10,CMPI,≤ 0.25
11,IWIA,≤ 0.25
12,LSQY,≤ 0.25
13,MTKG,≤ 0.25
14,ILPG,≤ 0.25
15,FMRV,≤ 0.25
16,DGLY,≤ 0.25
17,MKNP,≤ 0.25
18,EDYK,≤ 0.25
19,VMVA,≤ 0.25
20,PRMC,≤ 0.25
21,QRAH,≤ 0.25
22,MMAV,5.57
23,EFGT,≤ 0.25
24,HDNS,≤ 0.25

row,Variant,enrichment ratio
1,KQDY,≤ 0.25
2,LNVF,≤ 0.25
3,GDCR,≤ 0.25
4,NPEG,≤ 0.25
5,IYGP,≤ 0.25
6,PVNK,≤ 0.25
7,THNS,11
8,AYYH,≤ 0.25
9,HVRA,≤ 0.25
10,ANQY,3.3
11,PKEE,≤ 0.25
12,WLKM,≤ 0.25
13,MKYN,≤ 0.25
14,FPAQ,≤ 0.25
15,QCDF,≤ 0.25
16,KRWM,≤ 0.25
17,MNCH,≤ 0.25
18,YHAF,≤ 0.25
19,HHDS,≤ 0.25
20,WRPF,≤ 0.25
21,EARY,≤ 0.25
22,ECFH,≤ 0.25
23,PCHR,≤ 0.25
24,CFPP,≤ 0.25

row,Variant,enrichment ratio
1,CLFR,≤ 0.25
2,WDTK,≤ 0.25
3,TTIK,≤ 0.25
4,VSYQ,≤ 0.25
5,MEFA,≤ 0.25
6,QFVG,≤ 0.25
7,NDAG,≤ 0.25
8,HMDR,≤ 0.25
9,HFMP,≤ 0.25
10,SLGM,6.71
11,EMTK,≤ 0.25
12,TFVH,≤ 0.25
13,WITK,≤ 0.25
14,NRMS,≤ 0.25
15,QRHS,≤ 0.25
16,FWAA,≤ 0.25
17,TQWD,7.23
18,HKDQ,≤ 0.25
19,TDVV,3.63
20,NEYA,≤ 0.25
21,AFMC,≤ 0.25
22,LHAR,≤ 0.25
23,HLLF,≤ 0.25
24,APKD,≤ 0.25

row,Variant,enrichment ratio
1,YFYR,≤ 0.25
2,KSFS,≤ 0.25
3,TVSG,20.3
4,REVN,≤ 0.25
5,LVGQ,≤ 0.25
6,NWLA,≤ 0.25
7,RIPA,≤ 0.25
8,LKTR,≤ 0.25
9,TFPI,≤ 0.25
10,DRYG,≤ 0.25
11,EETH,≤ 0.25
12,PMGM,≤ 0.25
13,HCRT,≤ 0.25
14,WAWR,≤ 0.25
15,GCRY,≤ 0.25
16,NFEM,≤ 0.25
17,IFKC,≤ 0.25
18,IMQM,≤ 0.25
19,DLWI,≤ 0.25
20,ASFK,≤ 0.25
21,YFWT,≤ 0.25
22,YWTH,≤ 0.25
23,GYRY,≤ 0.25
24,SHQR,≤ 0.25

row,Variant,enrichment ratio
1,PDRT,≤ 0.25
2,HPHD,≤ 0.25
3,LEGR,≤ 0.25
4,GLSP,≤ 0.25
5,TEHA,≤ 0.25
6,NRWA,0.871
7,YAAI,≤ 0.25
8,HIYV,≤ 0.25
9,FSFR,≤ 0.25
10,HYIM,≤ 0.25
11,MVGF,5.73
12,QSCK,≤ 0.25
13,EGNH,≤ 0.25
14,QGNH,≤ 0.25
15,PRHD,≤ 0.25
16,IHWL,≤ 0.25
17,RNME,≤ 0.25
18,VAVK,≤ 0.25
19,NGPC,0.99
20,SDVV,6.28
21,DIAY,≤ 0.25
22,IGTT,≤ 0.25
23,LNFH,≤ 0.25
24,VNPP,≤ 0.25

row,Variant,enrichment ratio
1,HKQF,≤ 0.25
2,WRWQ,≤ 0.25
3,LNTR,≤ 0.25
4,TDSV,10
5,QITW,≤ 0.25
6,DKTN,≤ 0.25
7,TINT,4.95
8,HSKN,≤ 0.25
9,YDMD,≤ 0.25
10,TYVH,≤ 0.25
11,EHCF,≤ 0.25
12,IKDN,≤ 0.25
13,CHVF,≤ 0.25
14,TISA,10.6
15,IMQC,≤ 0.25
16,PNCK,≤ 0.25
17,REKL,≤ 0.25
18,VKSD,≤ 0.25
19,RAVF,≤ 0.25
20,FLMR,≤ 0.25
21,SQCQ,3.73
22,LNCM,≤ 0.25
23,MEEN,≤ 0.25
24,RNQN,≤ 0.25

row,Variant,enrichment ratio
1,HGRC,≤ 0.25
2,HCLP,≤ 0.25
3,HFIQ,≤ 0.25
4,CLSP,≤ 0.25
5,LGRE,≤ 0.25
6,TTDI,≤ 0.25
7,SNIQ,≤ 0.25
8,KSYP,≤ 0.25
9,ALMG,6.08
10,RDKF,≤ 0.25
11,ERVN,≤ 0.25
12,QDFD,≤ 0.25
13,PTIM,≤ 0.25
14,SRLA,≤ 0.25
15,LWVE,≤ 0.25
16,EHAD,≤ 0.25
17,VKWH,≤ 0.25
18,RSPT,≤ 0.25
19,NEGV,≤ 0.25
20,YMHD,≤ 0.25
21,WSCW,≤ 0.25
22,ASKV,≤ 0.25
23,SITD,≤ 0.25
24,HQAT,≤ 0.25

row,Variant,enrichment ratio
1,TAAL,11.4
2,WDQL,≤ 0.25
3,NMTF,≤ 0.25
4,MVGA,≤ 0.25
5,KDAM,≤ 0.25
6,RSMR,≤ 0.25
7,PAAS,≤ 0.25
8,VYQT,≤ 0.25
9,LGYD,≤ 0.25
10,QPWG,≤ 0.25
11,QQNL,14.9
12,IQKV,≤ 0.25
13,MNDM,≤ 0.25
14,PKSR,≤ 0.25
15,YIMQ,≤ 0.25
16,MQMT,≤ 0.25
17,FPWY,≤ 0.25
18,WRNY,≤ 0.25
19,WTYF,≤ 0.25
20,NKIW,≤ 0.25
21,LVQL,≤ 0.25
22,EMFD,≤ 0.25
23,VWEG,≤ 0.25
24,MWHT,≤ 0.25

row,Variant,enrichment ratio
1,PTTQ,≤ 0.25
2,SMEC,≤ 0.25
3,FAAQ,≤ 0.25
4,QECD,≤ 0.25
5,SGIF,2.26
6,HSYN,≤ 0.25
7,QQEG,≤ 0.25
8,IFMV,≤ 0.25
9,IVKP,≤ 0.25
10,LAGE,≤ 0.25
11,RRMP,≤ 0.25
12,NPRQ,≤ 0.25
13,LWGE,≤ 0.25
14,QFFQ,≤ 0.25
15,VFEW,≤ 0.25
16,ALWC,≤ 0.25
17,DHMH,≤ 0.25
18,MRTF,≤ 0.25
19,VCDI,≤ 0.25
20,PIWH,≤ 0.25
21,TEQC,9.21
22,FWVL,≤ 0.25
23,HNTI,≤ 0.25
24,DWCS,≤ 0.25

row,Variant,enrichment ratio
1,KCHV,≤ 0.25
2,GGHP,≤ 0.25
3,KIDL,≤ 0.25
4,HQAI,≤ 0.25
5,LRYC,≤ 0.25
6,SPCY,≤ 0.25
7,VNVT,≤ 0.25
8,YYQA,≤ 0.25
9,SKMD,0.57
10,GMLQ,≤ 0.25
11,LKVP,≤ 0.25
12,SDDT,≤ 0.25
13,TISQ,10.4
14,LPLT,≤ 0.25
15,LAGY,≤ 0.25
16,YCYK,≤ 0.25
17,SKTT,3.09
18,TCGA,6.88
19,INLV,4.76
20,FNNC,≤ 0.25
21,KYGW,≤ 0.25
22,LRRE,≤ 0.25
23,NIFV,≤ 0.25
24,HHKW,≤ 0.25

row,Variant,enrichment ratio
1,KTIN,≤ 0.25
2,ESWE,≤ 0.25
3,KTQM,≤ 0.25
4,HTEF,≤ 0.25
5,TQNA,≤ 0.25
6,RPKY,≤ 0.25
7,VQDY,≤ 0.25
8,QLRT,≤ 0.25
9,KAGH,≤ 0.25
10,FDYA,≤ 0.25
11,LCDD,≤ 0.25
12,WASS,≤ 0.25
13,LDFG,≤ 0.25
14,QASD,≤ 0.25
15,KQHV,≤ 0.25
16,EMFN,≤ 0.25
17,FPDV,≤ 0.25
18,ITFT,≤ 0.25
19,PHCL,≤ 0.25
20,WERT,≤ 0.25
21,LDDN,≤ 0.25
22,YFCQ,≤ 0.25
23,DRPH,≤ 0.25
24,YYQC,≤ 0.25

row,Variant,enrichment ratio
1,SPSY,≤ 0.25
2,HVWR,≤ 0.25
3,NSIY,≤ 0.25
4,PDAA,≤ 0.25
5,GWQC,≤ 0.25
6,LDAD,≤ 0.25
7,SCWV,≤ 0.25
8,NMRY,≤ 0.25
9,YKIK,≤ 0.25
10,TKQT,11.7
11,NREN,≤ 0.25
12,FHLD,≤ 0.25
13,WARY,≤ 0.25
14,SRMR,≤ 0.25
15,PACV,≤ 0.25
16,MGKA,≤ 0.25
17,EQKG,≤ 0.25
18,ARRR,≤ 0.25
19,ANPW,≤ 0.25
20,ARII,≤ 0.25
21,YTKI,≤ 0.25
22,EMRV,≤ 0.25
23,MEMY,4.03
24,WYWL,≤ 0.25

row,Variant,enrichment ratio
1,DFEI,≤ 0.25
2,YAQF,≤ 0.25
3,IDCF,≤ 0.25
4,LGCI,≤ 0.25
5,MDIF,≤ 0.25
6,NKYS,≤ 0.25
7,GWVK,≤ 0.25
8,GRYM,≤ 0.25
9,RSEA,≤ 0.25
10,FRGY,≤ 0.25
11,MMMS,≤ 0.25
12,RQCY,≤ 0.25
13,EEST,≤ 0.25
14,ANTC,63
15,MTEW,≤ 0.25
16,FRRS,≤ 0.25
17,MDQQ,≤ 0.25
18,FWTI,≤ 0.25
